Self-cleavage data for 56 variants are collected here from the RNAGym collection of RNA variant scans (doi:10.7554/elife.90254).

To fix the notation:
B1: LINE1-mini (parent)
chain: GGCAGAGCUCAACACAGCGUGGCAAAGUGGCUGUGGCUAGACUGCC

Read counts are not given, so values of variants with three or more changes are uncertain.

The variants in the data set derive from B1. Nature of the data set: self-cleavage, relative activity (ratio to wild type); higher = more cleavage; in vitro, sequencing; the parent is a self-cleaving ribozyme.
For the variant GGUAGAGCUCAACACAGCGUGGCCAAGUGGCUGUGGGUAGACUGCC [C3U A24C C37G], the self-cleavage was found to be 0.04.
Then GGUAGAGCUCAGCACAGCGUGACAAAGUGGCUGUGGCUAGACUGCC [C3U A12G G22A], with 0.24; and GGUAGAGCUGAACACAGCGUGGCAAUGUGGCUGUGGCUAGCCUGGA [C3U C10G A26U A41C C45G C46A], with 0.01; and GGUAGUGCUCAACACAGCGUGGCGAAGUGGCUGUGGCUAUACUGCC [C3U A6U A24G G40U], with 0.34.
With GGUAGAGCUAAAUACAGCGUGGCAAAGUGGCUGUGGCUAGACUGCU [C3U C10A C13U C46U], the self-cleavage was 0.04.
Then GGUAGAGCUCAUCACAGCGUCGCAAAGUCGCUGUGGCUAGACUGCC [C3U A12U G21C G29C], with 0.19.
As for GGUAGAGCUCGUCACAGCGUGGCAAAGUGGCUGUGGCUACACUGCU [C3U A11G A12U G40C C46U], the self-cleavage was determined as 0.
In the case of GGUAGAGCUCUACACAGCGUGGCAAAGUGGCCGUGGCUACACUGCC [C3U A11U U32C G40C], the self-cleavage was determined as 0.02.
The figure for GGUAGAGCUAAACUCAGCGUGGCAAAGUGGCUGUGGCUAGACUGCA [C3U C10A A14U C46A] is 0.08.
The figure for GGUAGAGAUUAACACAGCGAGGCAAAGUGGCUGUGGCUAGACUGCC [C3U C8A C10U U20A] is 0.14; for GGUAGAGCUGAUCACAGCGUGGCAUAGUAGCUGUGGCUAGACUGCC [C3U C10G A12U A25U G29A] it is 0.02.
Then GGUAGAGCUCAACACAGCGUGGCAAGGUUGCUGUGGCUAGACUGCC [C3U A26G G29U], with 0.72; and GGUAGAGCUCUACACAUCGUGGCAAAGUGGCUGUGGCUAGACAGCC [C3U A11U G17U U43A], with 0.03.
Regarding GGUAGAGUUCAACACAGCGUGACGAAGUGGCUGUGGCUAGGCUACC [C3U C8U G22A A24G A41G G44A], the self-cleavage turned out to be 0.36.
The figure for GGUAGAGCUAAACACACCGUGGUAAAGUGGCUGUGGCUAGACUGCA [C3U C10A G17C C23U C46A] is 0.01.
Then GGUAGAGCUGAACACACCGUGGCAAAGUGGCUGGGGCUAGACUGCC [C3U C10G G17C U34G], with 0.03.
The figure for GGUAGAGUUCAACACGCCGCGGCAAAGUGGCUGUGGCUAGACUGCC [C3U C8U A16G G17C U20C] is 0.01; for GGUAGAGCUAAACACAGCGUGGCCAAGUGGCUCUGGCUAGACUGCC [C3U C10A A24C G33C] it is 0.03.
Take GGUAGAGCUCGACACAGCGUGGCAAAGUGGCUGUGGCUUGACUGCC [C3U A11G A39U]: the self-cleavage turned out to be 0.03.
Consider GGUAGUAGUCAACCCAGCGUGGCAAAGUGGCUGUGGCUAGACUGCC [C3U A6U G7A C8G A14C], for which the self-cleavage worked out at 0.05.
Then GGUAGGGCUCUACACAGCGUGGCAAAGUGGCCGUGGCUAGAGUGCC [C3U A6G A11U U32C C42G], with 0.
Then GGUAGAGCUCCACACAGCGUAGCAAAGUGGCUGUGGCUAGACUGAC [C3U A11C G21A C45A], with 0.01.
As to GGUAGCGCUCAACACAGCUUGGCAAAGCGGCGGUGGCUAUACUGCC [C3U A6C G19U U28C U32G G40U], the self-cleavage worked out at 0.05.
Then GGUAGAGCUCAUCACAGCGUGGCAAAGUGGCUGUGGCUAGACUCCC [C3U A12U G44C], with 0.18; and GGUAGAGAUCAACACAGCGUGGCACAGUGGCUGUGGCUAGUCUACC [C3U C8A A25C A41U G44A], with 0.7.
For GGUAGAGCUCAACACCGCGUGGCAAAGUGGCUGUGGAUAGACUGCC [C3U A16C C37A], the self-cleavage came out at 0.07.
Then GGUAGAGAUCAACACAGCGUGGCAAAGUGGCCUUGGCUCGACUGCC [C3U C8A U32C G33U A39C], with 0.18; and GGUAGAGCUCAACACAGCGUGGCUUAGUGGCUUUGGCUAGACUGCC [C3U A24U A25U G33U], with 0.11.
Then GGUAGAGCUCAACACAGCGUGGCACAGUGGCUGUAGCUAAACUGCC [C3U A25C G35A G40A], with 0.05; and GGUAGAGCUAAACACAGCUUGGCAAAGUGGCUCUGGCUAGACUGCC [C3U C10A G19U G33C], with 0.06.
The figure for GGUAGAGCUCAACCCAGCGUGGCAAAGUGGCUGUGGGUAGACUGCC [C3U A14C C37G] is 0.07; for GGUAGAGCUCCACACAGCGUGGCAAAGUGUCUGUGGCUAGACUGCC [C3U A11C G30U] it is 0.05; for GGUAGAGUUCAACACAGCGUGGCAAAGUGGUUGUGGCUAGACUGCC [C3U C8U C31U] it is 0.2.
Take GGUAGAGCUCAGCACAGCGUGGCAAAGUGGCGGUGGCUAGACUGCU [C3U A12G U32G C46U]: the self-cleavage was 0.15.
Then GGUAGAGAUCAAUAAAGCGUGGCAAAGUGCCUGUGGCUAGACUGCC [C3U C8A C13U C15A G30C], with 2.2.
The figure for GGUAGAGCUCCACACAGCGUGGCAAAGCGGCUGUGGCUAGACUGCC [C3U A11C U28C] is 0.03.
Take GGUAGAGGUCAACACAGCGUGGAAAAGUGGCUGUGGCUAGACUGCC [C3U C8G C23A]: the self-cleavage was 0.05.
The figure for GGUAGAGCUAAACACAGCGUGGGAAAGUGUCUGUGGCUAGACUGCC [C3U C10A C23G G30U] is 0.04; for GGUAGAGCUGAACACAGCGUGGCGAAGUGGCUGUGGCUAGACUGCC [C3U C10G A24G] it is 0.04; for GGUAGAGCUCACCACAGCGUGGCAAAGUGGCUGUGGCUAUACUGCC [C3U A12C G40U] it is 0.02.
Then GGUAGAGCUCAACACGGAGUGGCAAAGUGGCUGUGGACAGACUGCC [C3U A16G C18A C37A U38C], with 0.02; and GGUAGAGCUUAACACAGCGCCGCAAAGUGGCUGUGGCUAGACUGCC [C3U C10U U20C G21C], with 0.02; and GGUAGAGCUCAACUCAGCGUGGCAAAGUGGCUGUCGUUAGACUGCC [C3U A14U G35C C37U], with 0.07.
The figure for GGUAGAGCUCAACACAGCGUGGCAACGUGGAUGUGGCUAGACUGCC [C3U A26C C31A] is 0.11.
For GGUAGCGUUCAACACAGCGUGGCAGUGUGGCUGUGGCUAGACUGCC [C3U A6C C8U A25G A26U], the self-cleavage was determined as 0.2.
Then GGUAGAGCUAAACACAGCGUGGUAAAGUGGCUGUGGCUAGACUGCC [C3U C10A C23U], with 0.03; and GGUAGAGGUCAACACAGCGUAGCAAAGUGGCUGUGGUUAGACUGCC [C3U C8G G21A C37U], with 0.1; and GGUAGAGCUCAACGCAGCGUGGCAAAGGGGCUGUGGCUAGACUGCC [C3U A14G U28G], with 0.17.
The figure for GGUAGAGUUCAAUACAGCGUGGCAAAGUGGCUGUAGCUAGACUACC [C3U C8U C13U G35A G44A] is 0.21; for GGUAGAGCUCAAAACAGGGUGUCAAAGUGGCUGUGGCUAGACUUCC [C3U C13A C18G G22U G44U] it is 0.05; for GGUAGAGACCAAUACAUCGCGGCAAAGUGGUCGUGGCUAGACUGCC [C3U C8A U9C C13U G17U U20C C31U U32C] it is 0.07.
Then GGUAGAGCUCUACAUAGCGUGGCAAAGUGGCUGUGGCUAGACUGCC [C3U A11U C15U], with 0.02.
With GGUAGAGCUCGACAUAGCGUGGCAAUGUGGCUGUGGCUAGACUGCC [C3U A11G C15U A26U], the self-cleavage turned out to be 0.01.
Then GGUAGAGCUCAACACCGCGUGGCAAAGUUGCUGUGGCUAGACUGCC [C3U A16C G29U], with 0.15; and GGUAGAGCUCCACGAAGCGUGGCAAAGUGGUUGUGGCUAGACUGGC [C3U A11C A14G C15A C31U C45G], with 0; and GGUAGCGCUCAACACAGCGUGGCAAAGUGGCUGUGGCUAGCCCGCC [C3U A6C A41C U43C], with 0.11.
